According to the supplement of paper PMC8728848:
The list shows a part of the results.

Key:
Assay in all cases: glycan array binding signal (z-score within array); higher = stronger binding
Conditions in all cases: glycan notation: IUPAC condensed, linker removed
[1] = molecular target: Gal(b1-4)Glc
Outline: (§1)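 Negative Z-scores can be read as non-binding. The Z-score is calculated within each array and then averaged across arrays of one protein sequence at different concentrations or buffers and across linkers. Arrays, 3228 in all, were curated from the Consortium for Functional Glycomics database and kept only where the protein sequence was available.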

[2] = molecular target: Gal(b1-4)Glc6S
Outline: as §1

[3] = molecular target: Gal(b1-4)GlcNAc
Outline: as §1

[4] = molecular target: Gal(b1-4)GlcNAc(a1-6)Gal(b1-4)GlcNAc
Outline: as §1

[5] = molecular target: Gal(b1-4)GlcNAc(b1-2)Man
Outline: as §1

[6] = molecular target: Gal(b1-4)GlcNAc(b1-2)Man(a1-3)Man(b1-4)GlcNAc(b1-4)GlcNAc
Outline: as §1

[7] = molecular target: Gal(b1-4)GlcNAc(b1-2)Man(a1-3)[Gal(b1-4)GlcNAc(b1-2)Man(a1-6)]Man(b1-4)GlcNAc(b1-4)GlcNAc
Outline: as §1

[8] = molecular target: Gal(b1-4)GlcNAc(b1-2)Man(a1-3)[Gal(b1-4)GlcNAc(b1-2)Man(a1-6)]Man(b1-4)GlcNAc(b1-4)[Fuc(a1-6)]GlcNAc
Outline: as §1

[9] = molecular target: Gal(b1-4)GlcNAc(b1-2)Man(a1-3)[Gal(b1-4)GlcNAc(b1-2)Man(a1-6)][Gal(b1-4)GlcNAc(b1-4)]Man(b1-4)GlcNAc(b1-4)[Fuc(a1-6)]GlcNAc
Outline: as §1

[10] = molecular target: Gal(b1-4)GlcNAc(b1-2)Man(a1-3)[Gal(b1-4)GlcNAc(b1-2)Man(a1-6)][GlcNAc(b1-4)]Man(b1-4)GlcNAc(b1-4)[Fuc(a1-6)]GlcNAc
Outline: as §1

[11] = molecular target: Gal(b1-4)GlcNAc(b1-2)Man(a1-3)[GlcNAc(b1-2)Man(a1-6)]Man(b1-4)GlcNAc(b1-4)GlcNAc
Outline: as §1

[12] = molecular target: Gal(b1-4)GlcNAc(b1-2)Man(a1-3)[GlcNAc(b1-4)][Gal(b1-4)GlcNAc(b1-2)Man(a1-6)]Man(b1-4)GlcNAc(b1-4)GlcNAc
Outline: as §1

[13] = molecular target: Gal(b1-4)GlcNAc(b1-2)Man(a1-3)[Man(a1-6)]Man(b1-4)GlcNAc(b1-4)GlcNAc
Outline: as §1

[14] = molecular target: Gal(b1-4)GlcNAc(b1-2)Man(a1-6)Man(b1-4)GlcNAc(b1-4)GlcNAc
Outline: as §1

[15] = molecular target: Gal(b1-4)GlcNAc(b1-2)Man(a1-6)[GlcNAc(b1-2)Man(a1-3)]Man(b1-4)GlcNAc(b1-4)GlcNAc
Outline: as §1

[16] = molecular target: Gal(b1-4)GlcNAc(b1-2)Man(a1-6)[Man(a1-3)]Man(b1-4)GlcNAc(b1-4)GlcNAc
Outline: as §1

[17] = molecular target: Gal(b1-4)GlcNAc(b1-2)[Gal(b1-4)GlcNAc(b1-4)]Man(a1-3)[Gal(b1-4)GlcNAc(b1-2)Man(a1-6)]Man(b1-4)GlcNAc(b1-4)GlcNAc
Outline: as §1

[18] = molecular target: Gal(b1-4)GlcNAc(b1-2)[Gal(b1-4)GlcNAc(b1-4)]Man(a1-3)[Gal(b1-4)GlcNAc(b1-2)[Gal(b1-4)GlcNAc(b1-6)]Man(a1-6)]Man(b1-4)GlcNAc(b1-4)GlcNAc
Outline: as §1

[19] = molecular target: Gal(b1-4)GlcNAc(b1-2)[Gal(b1-4)GlcNAc(b1-4)]Man(a1-3)[GlcNAc(b1-4)][Gal(b1-4)GlcNAc(b1-2)Man(a1-6)]Man(b1-4)GlcNAc(b1-4)GlcNAc
Outline: as §1

[20] = molecular target: Gal(b1-4)GlcNAc(b1-2)[Gal(b1-4)GlcNAc(b1-4)]Man(a1-3)[GlcNAc(b1-4)][Gal(b1-4)GlcNAc(b1-2)[Gal(b1-4)GlcNAc(b1-6)]Man(a1-6)]Man(b1-4)GlcNAc(b1-4)GlcNAc
Outline: as §1

[21] = molecular target: Gal(b1-4)GlcNAc(b1-2)[Gal(b1-4)GlcNAc(b1-6)]Man(a1-6)[Gal(b1-4)GlcNAc(b1-2)Man(a1-3)]Man(b1-4)GlcNAc(b1-4)GlcNAc
Outline: as §1

[22] = molecular target: Gal(b1-4)GlcNAc(b1-2)[Gal(b1-4)GlcNAc(b1-6)]Man(a1-6)[Gal(b1-4)GlcNAc(b1-2)Man(a1-3)]Man(b1-4)GlcNAc(b1-4)[Fuc(a1-6)]GlcNAc
Outline: as §1

[23] = molecular target: Gal(b1-4)GlcNAc(b1-2)[Gal(b1-4)GlcNAc(b1-6)]Man(a1-6)[GlcNAc(b1-4)][Gal(b1-4)GlcNAc(b1-2)Man(a1-3)]Man(b1-4)GlcNAc(b1-4)GlcNAc
Outline: as §1

[24] = molecular target: Gal(b1-4)GlcNAc(b1-2)[Gal(b1-4)GlcNAc(b1-6)]Man(a1-6)[GlcNAc(b1-4)][Gal(b1-4)GlcNAc(b1-2)[Gal(b1-4)GlcNAc(b1-4)]Man(a1-3)]Man(b1-4)GlcNAc(b1-4)[Fuc(a1-6)]GlcNAc
Outline: as §1

[25] = molecular target: Gal(b1-4)GlcNAc(b1-3)Gal(b1-3)GalNAc
Outline: as §1

[26] = molecular target: Gal(b1-4)GlcNAc(b1-3)Gal(b1-3)GlcNAc
Outline: as §1

[27] = molecular target: Gal(b1-4)GlcNAc(b1-3)Gal(b1-4)Glc
Outline: as §1

[28] = molecular target: Gal(b1-4)GlcNAc(b1-3)Gal(b1-4)GlcNAc
Outline: as §1

[29] = molecular target: Gal(b1-4)GlcNAc(b1-3)Gal(b1-4)GlcNAc(b1-2)Man(a1-3)[Gal(b1-4)GlcNAc(b1-3)Gal(b1-4)GlcNAc(b1-2)Man(a1-6)]Man(b1-4)GlcNAc(b1-4)GlcNAc
Outline: as §1

[30] = molecular target: Gal(b1-4)GlcNAc(b1-3)Gal(b1-4)GlcNAc(b1-2)Man(a1-3)[Gal(b1-4)GlcNAc(b1-3)Gal(b1-4)GlcNAc(b1-2)Man(a1-6)]Man(b1-4)GlcNAc(b1-4)[Fuc(a1-6)]GlcNAc
Outline: as §1

[31] = molecular target: Gal(b1-4)GlcNAc(b1-3)Gal(b1-4)GlcNAc(b1-2)[Gal(b1-4)GlcNAc(b1-3)Gal(b1-4)GlcNAc(b1-6)]Man(a1-6)[Gal(b1-4)GlcNAc(b1-3)Gal(b1-4)GlcNAc(b1-2)Man(a1-3)]Man(b1-4)GlcNAc(b1-4)GlcNAc
Outline: as §1

[32] = molecular target: Gal(b1-4)GlcNAc(b1-3)Gal(b1-4)GlcNAc(b1-2)[Gal(b1-4)GlcNAc(b1-3)Gal(b1-4)GlcNAc(b1-6)]Man(a1-6)[Gal(b1-4)GlcNAc(b1-3)Gal(b1-4)GlcNAc(b1-2)Man(a1-3)]Man(b1-4)GlcNAc(b1-4)[Fuc(a1-6)]GlcNAc
Outline: as §1

[33] = molecular target: Gal(b1-4)GlcNAc(b1-3)Gal(b1-4)GlcNAc(b1-3)Gal(b1-4)GlcNAc
Outline: as §1

[34] = molecular target: Gal(b1-4)GlcNAc(b1-3)Gal(b1-4)GlcNAc(b1-3)Gal(b1-4)GlcNAc(b1-2)Man(a1-3)[Gal(b1-4)GlcNAc(b1-3)Gal(b1-4)GlcNAc(b1-3)Gal(b1-4)GlcNAc(b1-2)Man(a1-6)]Man(b1-4)GlcNAc(b1-4)GlcNAc
Outline: as §1

[35] = molecular target: Gal(b1-4)GlcNAc(b1-3)Gal(b1-4)GlcNAc(b1-3)Gal(b1-4)GlcNAc(b1-2)Man(a1-3)[Gal(b1-4)GlcNAc(b1-3)Gal(b1-4)GlcNAc(b1-3)Gal(b1-4)GlcNAc(b1-2)Man(a1-6)]Man(b1-4)GlcNAc(b1-4)[Fuc(a1-6)]GlcNAc
Outline: as §1

[36] = molecular target: Gal(b1-4)GlcNAc(b1-3)Gal(b1-4)GlcNAc(b1-3)Gal(b1-4)GlcNAc(b1-2)[Gal(b1-4)GlcNAc(b1-3)Gal(b1-4)GlcNAc(b1-3)Gal(b1-4)GlcNAc(b1-6)]Man(a1-6)[Gal(b1-4)GlcNAc(b1-3)Gal(b1-4)GlcNAc(b1-3)Gal(b1-4)GlcNAc(b1-2)Man(a1-3)]Man(b1-4)GlcNAc(b1-4)[Fuc(a1-6)]GlcNAc
Outline: as §1

[37] = molecular target: Gal(b1-4)GlcNAc(b1-3)Gal(b1-4)GlcNAc(b1-3)Gal(b1-4)GlcNAc(b1-3)Gal(b1-4)GlcNAc(b1-2)Man(a1-3)[Gal(b1-4)GlcNAc(b1-3)Gal(b1-4)GlcNAc(b1-3)Gal(b1-4)GlcNAc(b1-3)Gal(b1-4)GlcNAc(b1-2)Man(a1-6)]Man(b1-4)GlcNAc(b1-4)GlcNAc
Outline: as §1

B1: FimD (Bordetella pertussis) (protein)
chain: MPARVISFCGAALAVWAGLAVQPAMAVDPPVDCGRALGLHFWSSASLISDQTPDGTLIGKPVVGRSLLSKSCKVPDDIKEDLSDNHDGEPVDIVLELGSNYKIRPQSYGHPGIVVDLPFGSTEETGIAIYIDFGSSPMQKVGERQWLYPQKGEVLFDVLTINGDNAEVRYQAIKVGPLKRPRKLVLSQFPNLFTYKWVFMRGTSQERVLAQGTIDTDVATSTIDLKTCRYTSQTVSLPIIQRSALTGVGTTLGMTDFQMPFWCYGWPKVSVYMSATKTQTGVDGVALPATGQAAGMASGVGVQLINGKTQQPVKLGLQGKIALPEAQQTESATFSLPMKAQYYQTSTSTSAGKLSVTYAVTLNYD
- glycan array binding signal (z-score) [1]: -0.288
- glycan array binding signal (z-score) [2]: -0.15
- glycan array binding signal (z-score) [3]: 0.077
- glycan array binding signal (z-score) [4]: -0.231
- glycan array binding signal (z-score) [5]: 0.051
- glycan array binding signal (z-score) [6]: 0.026
- glycan array binding signal (z-score) [7]: -0.361
- glycan array binding signal (z-score) [8]: 0.268
- glycan array binding signal (z-score) [9]: 0.272
- glycan array binding signal (z-score) [10]: -0.231
- glycan array binding signal (z-score) [11]: -0.145
- glycan array binding signal (z-score) [12]: -0.503
- glycan array binding signal (z-score) [13]: -0.107
- glycan array binding signal (z-score) [14]: -0.16
- glycan array binding signal (z-score) [15]: -0.022
- glycan array binding signal (z-score) [16]: -0.347
- glycan array binding signal (z-score) [17]: -0.318
- glycan array binding signal (z-score) [18]: -0.3
- glycan array binding signal (z-score) [19]: -0.22
- glycan array binding signal (z-score) [20]: -0.092
- glycan array binding signal (z-score) [21]: -0.132
- glycan array binding signal (z-score) [22]: 0.892
- glycan array binding signal (z-score) [23]: -0.186
- glycan array binding signal (z-score) [24]: -0.601
- glycan array binding signal (z-score) [25]: -0.264
- glycan array binding signal (z-score) [26]: -0.392
- glycan array binding signal (z-score) [27]: -0.049
- glycan array binding signal (z-score) [28]: -0.535
- glycan array binding signal (z-score) [29]: 0.708
- glycan array binding signal (z-score) [30]: -0.023
- glycan array binding signal (z-score) [31]: 0.404
- glycan array binding signal (z-score) [32]: -0.124
- glycan array binding signal (z-score) [33]: -0.273
- glycan array binding signal (z-score) [34]: 1.08
- glycan array binding signal (z-score) [35]: -0.033
- glycan array binding signal (z-score) [36]: 1.14
- glycan array binding signal (z-score) [37]: 0.51
